# Laboratory results: the supplement of paper PMC8728848
# This is one part of a sample in which the strongest signals are shown more often than they occur.
# Key:
# Assay in all cases: glycan array binding signal (z-score within array); higher = stronger binding
# Conditions in all cases: glycan notation: IUPAC condensed, linker removed
# [1] = biological target: Fuc(a1-2)Gal(b1-3)GalNAc
# Procedure, shortened: (§1)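 From the Consortium for Functional Glycomics database, 3228 arrays were curated, keeping only those whose protein sequence was available. Binding is given as a within-array Z-score averaged across arrays sharing a protein sequence and across linkers. Negative Z-scores can be read as non-binding.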
# [2] = biological target: Fuc(a1-2)Gal6S(b1-4)Glc6S
# Procedure, shortened: as §1
# [3] = biological target: Fuc(a1-2)[Gal(a1-3)]Gal(b1-3)GalNAc(b1-3)Gal(a1-4)Gal(b1-4)Glc
# Procedure, shortened: as §1
# [4] = biological target: Fuc(a1-2)[Gal(a1-3)]Gal(b1-4)Glc
# Procedure, shortened: as §1
# [5] = biological target: Fuc(a1-2)[GalNAc(a1-3)]Gal(b1-4)GlcNAc(b1-2)Man(a1-3)[Fuc(a1-2)[GalNAc(a1-3)]Gal(b1-4)GlcNAc(b1-2)Man(a1-6)]Man(b1-4)GlcNAc(b1-4)GlcNAc
# Procedure, shortened: as §1
# [6] = biological target: Fuc(a1-3)[GalNAc(b1-4)]GlcNAc
# Procedure, shortened: as §1
# [7] = biological target: Gal(a1-3)Gal(b1-4)GlcNAc
# Procedure, shortened: as §1
# [8] = biological target: Gal(a1-4)Gal(b1-4)GlcNAc(b1-3)Gal(b1-4)Glc
# Procedure, shortened: as §1
# [9] = biological target: Gal(b1-3)Gal(b1-4)GlcNAc
# Procedure, shortened: as §1
# [10] = biological target: Gal(b1-3)GalNAc(b1-3)Gal
# Procedure, shortened: as §1
# [11] = biological target: Gal(b1-3)[Neu5Ac(a2-6)]GalNAc
# Procedure, shortened: as §1
# [12] = biological target: Gal(b1-4)GlcNAc(b1-2)Man(a1-3)[Gal(b1-4)GlcNAc(b1-2)Man(a1-6)][GlcNAc(b1-4)]Man(b1-4)GlcNAc(b1-4)[Fuc(a1-6)]GlcNAc
# Procedure, shortened: as §1
# [13] = biological target: Gal(b1-4)GlcNAc(b1-2)[Gal(b1-4)GlcNAc(b1-6)]Man(a1-6)[Gal(b1-4)GlcNAc(b1-2)Man(a1-3)]Man(b1-4)GlcNAc(b1-4)[Fuc(a1-6)]GlcNAc
# Procedure, shortened: as §1
# [14] = biological target: Gal(b1-4)GlcNAc(b1-3)Gal(b1-4)GlcNAc(b1-3)Gal(b1-4)GlcNAc
# Procedure, shortened: as §1
# [15] = biological target: Gal(b1-4)GlcNAc(b1-3)Gal(b1-4)GlcNAc(b1-3)Gal(b1-4)GlcNAc(b1-3)Gal(b1-4)GlcNAc(b1-2)Man(a1-3)[Gal(b1-4)GlcNAc(b1-3)Gal(b1-4)GlcNAc(b1-3)Gal(b1-4)GlcNAc(b1-3)Gal(b1-4)GlcNAc(b1-2)Man(a1-6)]Man(b1-4)GlcNAc(b1-4)[Fuc(a1-6)]GlcNAc
# Procedure, shortened: as §1
# [16] = biological target: Gal(b1-4)GlcNAc(b1-3)[GlcNAc(b1-6)]Gal(b1-4)GlcNAc
# Procedure, shortened: as §1
# [17] = biological target: Gal3S(b1-4)GlcNAc
# Procedure, shortened: as §1
# [18] = biological target: Gal3S6S(b1-4)GlcNAc6S
# Procedure, shortened: as §1
# [19] = biological target: Gal6S(b1-4)Glc6S
# Procedure, shortened: as §1
# [20] = biological target: GalNAc(a1-3)GalNAc(b1-3)Gal(a1-4)Gal(b1-4)Glc
# Procedure, shortened: as §1
# [21] = biological target: GalNAc(a1-3)GalNAc(b1-3)Gal(a1-4)Gal(b1-4)GlcNAc
# Procedure, shortened: as §1
# [22] = biological target: GalNAc(b1-4)GlcNAc
# Procedure, shortened: as §1
# [23] = biological target: GalNAc(b1-4)GlcNAc(b1-3)GalNAc(b1-4)GlcNAc
# Procedure, shortened: as §1
# [24] = biological target: GalNAc(b1-4)GlcNAc6S
# Procedure, shortened: as §1
# [25] = biological target: GlcA(b1-3)Gal
# Procedure, shortened: as §1
# [26] = biological target: GlcNAc(a1-4)Gal(b1-4)GlcNAc(b1-3)Gal(b1-4)GlcNAc
# Procedure, shortened: as §1
# [27] = biological target: GlcNAc(b1-2)Gal(b1-3)GalNAc
# Procedure, shortened: as §1
# [28] = biological target: GlcNAc(b1-3)Gal(b1-4)GlcNAc(b1-3)Gal(b1-4)GlcNAc(b1-2)Man(a1-3)[GlcNAc(b1-3)Gal(b1-4)GlcNAc(b1-3)Gal(b1-4)GlcNAc(b1-2)Man(a1-6)]Man(b1-4)GlcNAc(b1-4)GlcNAc
# Procedure, shortened: as §1
# [29] = biological target: GlcNAc(b1-3)Gal(b1-4)GlcNAc(b1-3)Gal(b1-4)GlcNAc(b1-3)Gal(b1-4)GlcNAc(b1-2)[GlcNAc(b1-3)Gal(b1-4)GlcNAc(b1-3)Gal(b1-4)GlcNAc(b1-3)Gal(b1-4)GlcNAc(b1-6)]Man(a1-6)[GlcNAc(b1-3)Gal(b1-4)GlcNAc(b1-3)Gal(b1-4)GlcNAc(b1-3)Gal(b1-4)GlcNAc(b1-2)Man(a1-3)]Man(b1-4)GlcNAc(b1-4)[Fuc(a1-6)]GlcNAc
# Procedure, shortened: as §1
# [30] = biological target: GlcNAc(b1-3)Gal(b1-4)GlcNAc(b1-3)[GlcNAc(b1-3)Gal(b1-4)GlcNAc(b1-3)]GalNAc
# Procedure, shortened: as §1
# [31] = biological target: GlcNAc(b1-3)[GlcNAc(b1-6)]Gal(b1-4)GlcNAc
# Procedure, shortened: as §1
# [32] = biological target: GlcNAc(b1-4)GlcNAc
# Procedure, shortened: as §1
# [33] = biological target: Kdn(a2-3)Gal(b1-3)GalNAc
# Procedure, shortened: as §1
# [34] = biological target: Man(a1-2)Man(a1-3)[Man(a1-6)]Man(a1-6)[Man(a1-2)Man(a1-3)]Man(b1-4)GlcNAc(b1-4)GlcNAc
# Procedure, shortened: as §1
# [35] = biological target: Neu5Ac(a2-3)Gal(b1-3)[Neu5Ac(a2-6)]GalNAc
# Procedure, shortened: as §1
# [36] = biological target: Neu5Ac(a2-3)Gal(b1-4)GlcNAc(b1-2)Man(a1-3)[GlcNAc(b1-4)][Neu5Ac(a2-3)Gal(b1-4)GlcNAc(b1-2)Man(a1-6)]Man(b1-4)GlcNAc(b1-4)GlcNAc
# Procedure, shortened: as §1
# [37] = biological target: Neu5Ac(a2-3)Gal(b1-4)GlcNAc(b1-6)GalNAc
# Procedure, shortened: as §1
# [38] = biological target: Neu5Ac(a2-3)Gal(b1-4)[Fuc(a1-3)]GlcNAc(b1-6)[Gal(b1-3)]GalNAc
# Procedure, shortened: as §1
# [39] = biological target: Neu5Ac(a2-3)[GalNAc(b1-4)]Gal(b1-4)Glc
# Procedure, shortened: as §1
# [40] = biological target: Neu5Ac(a2-6)Gal(b1-4)GlcNAc(b1-6)[Gal(b1-3)GlcNAc(b1-3)]Gal(b1-4)Glc
# Procedure, shortened: as §1
# [41] = biological target: Neu5Ac(a2-6)GalNAc
# Procedure, shortened: as §1
# [42] = biological target: Neu5Ac(a2-6)GalNAc(b1-4)GlcNAc6S
# Procedure, shortened: as §1
# [43] = biological target: Neu5Ac(a2-8)Neu5Ac(a2-3)Gal(b1-4)Glc
# Procedure, shortened: as §1
# [44] = biological target: Neu5Ac(a2-8)Neu5Ac(a2-3)[GalNAc(b1-4)]Gal(b1-4)Glc
# Procedure, shortened: as §1
# [45] = biological target: Neu5Gc(a2-8)Neu5Gc(a2-3)Gal(b1-4)GlcNAc
# Procedure, shortened: as §1
binder,measurement,setting,value
Fc-marm-DC-ASGPR (protein) [in this place human IgG1 Fc and a few adjoining residues]ASSKFQRDLVTLRTDFSNFTSNTLAEIQALTSQGSSLQETIASLKAEVEGHKQELQAGASELQEHNKQKAHLGRCPHTCVCPSSFVCVPVHSEILLRVQQLVQDLNKLSCQVAILKNNATTERTCCPINWVEHQGSCYWFSRSGKTWPEAERYCQLENTHLVVINSREEQNFVQAHLGSAYTWMGLSDPEGVWKWVDGTDYSSGFQNWKPGQPDDWQGHGLGGGEDCAHFHPDGRWNDDVCQRSYHWVCEAGLTQASQDSHAS,glycan array binding signal (z-score),[1],-0.517
same,glycan array binding signal (z-score),[2],0.129
same,glycan array binding signal (z-score),[3],-0.516
same,glycan array binding signal (z-score),[4],-0.109
same,glycan array binding signal (z-score),[5],3.54
same,glycan array binding signal (z-score),[6],3.37
same,glycan array binding signal (z-score),[7],-0.347
same,glycan array binding signal (z-score),[8],-0.396
same,glycan array binding signal (z-score),[9],-0.491
same,glycan array binding signal (z-score),[10],-0.491
same,glycan array binding signal (z-score),[11],-0.317
same,glycan array binding signal (z-score),[12],-0.58
same,glycan array binding signal (z-score),[13],-0.51
same,glycan array binding signal (z-score),[14],-0.487
same,glycan array binding signal (z-score),[15],-0.539
same,glycan array binding signal (z-score),[16],-0.475
same,glycan array binding signal (z-score),[17],-0.244
same,glycan array binding signal (z-score),[18],1.25
same,glycan array binding signal (z-score),[19],0.296
same,glycan array binding signal (z-score),[20],3.29
same,glycan array binding signal (z-score),[21],3.61
same,glycan array binding signal (z-score),[22],3.28
same,glycan array binding signal (z-score),[23],3.33
same,glycan array binding signal (z-score),[24],3.26
same,glycan array binding signal (z-score),[25],-0.464
same,glycan array binding signal (z-score),[26],-0.539
same,glycan array binding signal (z-score),[27],-0.379
same,glycan array binding signal (z-score),[28],-0.171
same,glycan array binding signal (z-score),[29],-0.561
same,glycan array binding signal (z-score),[30],-0.432
same,glycan array binding signal (z-score),[31],-0.552
same,glycan array binding signal (z-score),[32],-0.331
same,glycan array binding signal (z-score),[33],-0.358
same,glycan array binding signal (z-score),[34],-0.487
same,glycan array binding signal (z-score),[35],-0.237
same,glycan array binding signal (z-score),[36],-0.561
same,glycan array binding signal (z-score),[37],3.4
same,glycan array binding signal (z-score),[38],-0.548
same,glycan array binding signal (z-score),[39],3.36
same,glycan array binding signal (z-score),[40],-0.387
same,glycan array binding signal (z-score),[41],3.24
same,glycan array binding signal (z-score),[42],3.51
same,glycan array binding signal (z-score),[43],-0.403
same,glycan array binding signal (z-score),[44],3.09
same,glycan array binding signal (z-score),[45],-0.454
